Test results from the supplement of paper PMC4604168 (melanoma cell lines).
The list shows a part of the results. Single values are uncertain, as repeats are few or missing.

Assays:
Assay in all cases: cell count relative to DMSO control; melanoma cells; higher = more viable cells
Conditions in all cases: library dose: low library concentration; 72 h
MZ2-MEL = test system: MZ2-MEL
MeWo = test system: MeWo
RPMI7951 = test system: RPMI7951
RVH-421 = test system: RVH-421
SkMel2 = test system: SkMel2
UACC62 = test system: UACC62
SkMel28 = test system: SkMel28
SkMel30 = test system: SkMel30
SkMel5 = test system: SkMel5
UACC257 = test system: UACC257
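Note: cell number obtained by counting DAPI-stained nuclei in high-throughput microscope images with image analysis software, screen run in 1,536-well plates.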

## N#CC[C@H](C1CCCC1)n1cc(-c2ncnc3[nH]ccc23)cn1 [ruxolitinib] + COc1ccc(C2=N[C@@H](c3ccc(Cl)cc3)[C@@H](c3ccc(Cl)cc3)N2C(=O)N2CCNC(=O)C2)c(OC(C)C)c1 [Nutlin-3] (first compound 1 µM, partner dose 0.1 µM)
MZ2-MEL
  cell count: 112%
MeWo
  cell count: 113%
RPMI7951
  cell count: 124%
RVH-421
  cell count: 94.2%
SkMel2
  cell count: 106%
UACC62
  cell count: 121%

## N#CC[C@H](C1CCCC1)n1cc(-c2ncnc3[nH]ccc23)cn1 [ruxolitinib] + OCCn1cc(-c2cnc3nnn(Cc4ccc5ncccc5c4)c3n2)cn1 [PF04217903] (first compound 1 µM, partner dose 1 µM)
MeWo
  cell count: 87.1%
RPMI7951
  cell count: 118%
RVH-421
  cell count: 109%
SkMel28
  cell count: 103%
SkMel2
  cell count: 109%
SkMel30
  cell count: 96.4%
SkMel5
  cell count: 104%
UACC257
  cell count: 103%

## N#CC[C@H](C1CCCC1)n1cc(-c2ncnc3[nH]ccc23)cn1 [ruxolitinib] + O=S(=O)(c1ccccc1)N(CC(F)(F)F)c1ccc(C(O)(C(F)(F)F)C(F)(F)F)cc1 [T0901317] (first compound 1 µM, partner dose 1.4 µM)
MeWo
  cell count: 112%
RPMI7951
  cell count: 103%
RVH-421
  cell count: 92.4%
SkMel28
  cell count: 101%
SkMel2
  cell count: 103%
SkMel30
  cell count: 90.9%
SkMel5
  cell count: 93.1%
UACC257
  cell count: 115%
UACC62
  cell count: 106%
